# ± gives the standard error. This sample is rich in variants without activity.
# B1: glmS ribozyme (parent)
# chain: AUAAAAGCGCCAGAACUACAGAAAUGUAGUUGACGAGGAGGAGGUUUAUCGAAUUUUCGGCGGAUGCCUCCAAA
# How the values were obtained:
# Conditions in all cases: with glucosamine-6-phosphate
# [1] = variants of: B1; experiment: self-cleavage kobs at 640 uM GlcN6P; higher = faster cleavage; RNA array
# Summary of the method: (§1)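 Weighted Michaelis–Menten fits across concentrations supplied kcat and KM, based on kobs from one- or two-exponential decay fits to normalised per-tile medians. The data came from barcoded ribozyme variants transcribed in situ by E. coli RNA polymerase on sequenced MiSeq chips and tracked at 37 °C by a hybridised Cy3 probe. Glucosamine-6-phosphate (40 μM to 10 mM) in HEPES/KCl/Mg(OAc)2 buffer was flowed in.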
# [2] = variants of: B1; experiment: self-cleavage kobs at 160 uM GlcN6P; higher = faster cleavage; RNA array
# Summary of the method: as §1
# [3] = variants of: B1; experiment: self-cleavage kobs at 10000 uM GlcN6P; higher = faster cleavage; RNA array
# Summary of the method: as §1
# [4] = variants of: B1; experiment: self-cleavage kobs at 2500 uM GlcN6P; higher = faster cleavage; RNA array
# Summary of the method: as §1
Variant,self-cleavage kobs at 640 uM GlcN6P [1],self-cleavage kobs at 160 uM GlcN6P [2],self-cleavage kobs at 10000 uM GlcN6P [3],self-cleavage kobs at 2500 uM GlcN6P [4]
G9A U69A,< 1e-05 s⁻¹,< 1e-05 s⁻¹,< 1e-05 s⁻¹,
G9C A14G G38C G40U,< 1e-05 s⁻¹,< 1e-05 s⁻¹,,
G9C A48G C67G C68A,9.72e-05 ± 4.1e-05 s⁻¹,,0.000631 ± 0.00016 s⁻¹,
G9U A12U A33C G37C A64C,< 1e-05 s⁻¹,,,< 1e-05 s⁻¹
G9U A42G U46G,< 1e-05 s⁻¹,< 1e-05 s⁻¹,,
G9U A42G U55A,< 1e-05 s⁻¹,,,< 1e-05 s⁻¹
G9U C10G C11A,< 1e-05 s⁻¹,,,
G9U G40U G41U C70G,< 1e-05 s⁻¹,,,
G9U U30C A33U,< 1e-05 s⁻¹,,,
G9U U30C A36U,< 1e-05 s⁻¹,,,< 1e-05 s⁻¹
G9U U30G G32U U55A C67G,< 1e-05 s⁻¹,,< 1e-05 s⁻¹,< 1e-05 s⁻¹
G9U U31G A36C,< 1e-05 s⁻¹,< 1e-05 s⁻¹,< 1e-05 s⁻¹,
C10A A12G A33U,< 1e-05 s⁻¹,< 1e-05 s⁻¹,,< 1e-05 s⁻¹
C10A A39G G51U,< 1e-05 s⁻¹,,,< 1e-05 s⁻¹
C10A C11A A14C C61G,< 1e-05 s⁻¹,,< 1e-05 s⁻¹,
C10A G13U A15G G40U U46G,< 1e-05 s⁻¹,< 1e-05 s⁻¹,,< 1e-05 s⁻¹
C10A G37U A39U G44U G59U C70G,< 1e-05 s⁻¹,,,< 1e-05 s⁻¹
C10A G40A G60A U65C,< 1e-05 s⁻¹,< 1e-05 s⁻¹,,< 1e-05 s⁻¹
C10G A15G U55G,< 1e-05 s⁻¹,,,
C10G A33C G59C,< 1e-05 s⁻¹,,,
C10G A42C C71U,< 1e-05 s⁻¹,,,< 1e-05 s⁻¹
C10G C11A C16A C58G C71G,0.00176 ± 0.00062 s⁻¹,,,0.000241 ± 0.0001 s⁻¹
C10G C16U A33U,< 1e-05 s⁻¹,,,
C10G G29C A52C,< 1e-05 s⁻¹,,,
C10G G32A U45C A48U U69C,< 1e-05 s⁻¹,,< 1e-05 s⁻¹,

Variant,self-cleavage kobs at 640 uM GlcN6P [1],self-cleavage kobs at 160 uM GlcN6P [2],self-cleavage kobs at 10000 uM GlcN6P [3],self-cleavage kobs at 2500 uM GlcN6P [4]
C10G G32U A39G G59C A64U C70A,< 1e-05 s⁻¹,,,< 1e-05 s⁻¹
C10G G41U G59A,< 1e-05 s⁻¹,< 1e-05 s⁻¹,,< 1e-05 s⁻¹
C10G G44A C50U U54C G62A,< 1e-05 s⁻¹,< 1e-05 s⁻¹,,
C10G G44C,< 1e-05 s⁻¹,,,< 1e-05 s⁻¹
C10G G44U C50U C61U,< 1e-05 s⁻¹,< 1e-05 s⁻¹,,
C10G U30C C68G,9.65e-05 ± 3.5e-05 s⁻¹,,,
C10U A12U A15G A33C U57G,< 1e-05 s⁻¹,< 1e-05 s⁻¹,< 1e-05 s⁻¹,
C10U A33C U46C,< 1e-05 s⁻¹,< 1e-05 s⁻¹,,< 1e-05 s⁻¹
C10U A33G G44A,< 1e-05 s⁻¹,< 1e-05 s⁻¹,,< 1e-05 s⁻¹
C10U A39C U46C,< 1e-05 s⁻¹,,< 1e-05 s⁻¹,
C10U C11U A12G A33C G40U G59U G66A,< 1e-05 s⁻¹,,,
C10U G13U A48U,< 1e-05 s⁻¹,,,< 1e-05 s⁻¹
C10U G38U U57G C61G G66U,0.000307 ± 9.3e-05 s⁻¹,,,
C10U G41A U65G,< 1e-05 s⁻¹,< 1e-05 s⁻¹,,< 1e-05 s⁻¹
C10U G41C U65G,< 1e-05 s⁻¹,,,< 1e-05 s⁻¹
C10U U31A G43C C50G,< 1e-05 s⁻¹,,,
C11A A14G A64C,< 1e-05 s⁻¹,,,
C11A G29A C34A U57C,< 1e-05 s⁻¹,< 1e-05 s⁻¹,,
C11A G43U A48C C71A,< 1e-05 s⁻¹,,,< 1e-05 s⁻¹
C11A G43U U55A,< 1e-05 s⁻¹,,,
C11A U30C A53C C71U,< 1e-05 s⁻¹,,,
C11G A33U C34A G41A U54A,< 1e-05 s⁻¹,< 1e-05 s⁻¹,,< 1e-05 s⁻¹
C11G A36C G41C G60A,< 1e-05 s⁻¹,< 1e-05 s⁻¹,,< 1e-05 s⁻¹
C11G C16A C50G U65G,0.000148 ± 5.2e-05 s⁻¹,,,
C11G C16G G41A,< 1e-05 s⁻¹,,,

Variant,self-cleavage kobs at 640 uM GlcN6P [1],self-cleavage kobs at 160 uM GlcN6P [2],self-cleavage kobs at 10000 uM GlcN6P [3],self-cleavage kobs at 2500 uM GlcN6P [4]
C11G C50G A52U,< 1e-05 s⁻¹,,,< 1e-05 s⁻¹
C11G C50U G66U,< 1e-05 s⁻¹,,,
C11G G40A G66A U69G,< 1e-05 s⁻¹,,,< 1e-05 s⁻¹
C11G U30A G40U,< 1e-05 s⁻¹,,,
C11G U45A C68G,< 1e-05 s⁻¹,,,< 1e-05 s⁻¹
C11U A14U,0.000266 ± 3.5e-05 s⁻¹,9.95e-05 ± 1.2e-05 s⁻¹,0.000984 ± 0.00014 s⁻¹,0.00104 ± 0.00013 s⁻¹
C11U A53C,8.09e-05 ± 1e-05 s⁻¹,3.37e-05 ± 1.3e-05 s⁻¹,0.000412 ± 6.8e-05 s⁻¹,0.000307 ± 4.8e-05 s⁻¹
C11U C34A U55G,< 1e-05 s⁻¹,,,
C11U G37A U57G G63A,< 1e-05 s⁻¹,,,
C11U G51U U54G G59U C70U,< 1e-05 s⁻¹,,,
C11U U31C G63A,< 1e-05 s⁻¹,,,< 1e-05 s⁻¹
C11U U47C,4.05e-05 ± 1.7e-05 s⁻¹,,,
A12C A14C C34A G63C,< 1e-05 s⁻¹,,,
A12C A33G A53C C68U,< 1e-05 s⁻¹,< 1e-05 s⁻¹,,< 1e-05 s⁻¹
A12C A33U G35U G51C,< 1e-05 s⁻¹,,,
A12C A39G G44U A53C G63C,< 1e-05 s⁻¹,,,
A12C A48C A53U U54G G60U A64U,< 1e-05 s⁻¹,,,
A12C G32C G60C,< 1e-05 s⁻¹,,< 1e-05 s⁻¹,< 1e-05 s⁻¹
A12C G37C G40C U56A U65G,< 1e-05 s⁻¹,,,< 1e-05 s⁻¹
A12C U46A G62C,< 1e-05 s⁻¹,,,
A12C U54G C68G,4.37e-05 ± 1.2e-05 s⁻¹,,,5.51e-05 ± 1.5e-05 s⁻¹
A12G C34A,< 1e-05 s⁻¹,< 1e-05 s⁻¹,< 1e-05 s⁻¹,< 1e-05 s⁻¹
A12G G32A C34G C71A,< 1e-05 s⁻¹,,,
A12G G41U A48C C50G,< 1e-05 s⁻¹,< 1e-05 s⁻¹,,< 1e-05 s⁻¹
A12G U30G G59U,< 1e-05 s⁻¹,,,

Variant,self-cleavage kobs at 640 uM GlcN6P [1],self-cleavage kobs at 160 uM GlcN6P [2],self-cleavage kobs at 10000 uM GlcN6P [3],self-cleavage kobs at 2500 uM GlcN6P [4]
A12G U45G,6.36e-05 ± 1.3e-05 s⁻¹,,0.000386 ± 3.9e-05 s⁻¹,0.000197 ± 4.2e-05 s⁻¹
A12G U46G U49C,< 1e-05 s⁻¹,< 1e-05 s⁻¹,,
A12U A39U G51U A52C U54A U57C G62C,< 1e-05 s⁻¹,,,
A12U C50A A64U,< 1e-05 s⁻¹,,,
A12U G29A A52U,4.42e-05 ± 1.6e-05 s⁻¹,,,
A12U G32A G35U,< 1e-05 s⁻¹,< 1e-05 s⁻¹,,
A12U G32C C50U,< 1e-05 s⁻¹,,,< 1e-05 s⁻¹
A12U G35A G40U,< 1e-05 s⁻¹,< 1e-05 s⁻¹,,< 1e-05 s⁻¹
A12U G60C C70U,< 1e-05 s⁻¹,,,
A12U G60U G62U,< 1e-05 s⁻¹,,,
G13A A33U G66U,< 1e-05 s⁻¹,,,< 1e-05 s⁻¹
G13A C34A,< 1e-05 s⁻¹,< 1e-05 s⁻¹,< 1e-05 s⁻¹,< 1e-05 s⁻¹
G13A G32C A36U G37C G40C U45C,< 1e-05 s⁻¹,,,< 1e-05 s⁻¹
G13A G35C,< 1e-05 s⁻¹,,,
G13A G43A C50G C61G,< 1e-05 s⁻¹,,,
G13A U31A G32A C50G C67G,4.97e-05 ± 2.2e-05 s⁻¹,,,
G13C C16U A36G U69C,< 1e-05 s⁻¹,,,
G13C C34G G35C A52C,< 1e-05 s⁻¹,,,< 1e-05 s⁻¹
G13C G62U G66C,< 1e-05 s⁻¹,,,< 1e-05 s⁻¹
G13C U46G A53U U54A,< 1e-05 s⁻¹,,,
G13U A15G G40C U57C G62C,< 1e-05 s⁻¹,,,
G13U A33G G59U U69A,< 1e-05 s⁻¹,,,
G13U A33U A53G C58U G59A,< 1e-05 s⁻¹,,< 1e-05 s⁻¹,
G13U A42C U54A U55G,< 1e-05 s⁻¹,< 1e-05 s⁻¹,,< 1e-05 s⁻¹
G13U C50U U65C,< 1e-05 s⁻¹,,,

Variant,self-cleavage kobs at 640 uM GlcN6P [1],self-cleavage kobs at 160 uM GlcN6P [2],self-cleavage kobs at 10000 uM GlcN6P [3],self-cleavage kobs at 2500 uM GlcN6P [4]
G13U G29A G40A U65G,< 1e-05 s⁻¹,,,
G13U G51C,< 1e-05 s⁻¹,,< 1e-05 s⁻¹,
A14C A15G C34G A39U,< 1e-05 s⁻¹,,,< 1e-05 s⁻¹
A14C C58U G62C,< 1e-05 s⁻¹,,,
A14C G35C A39C,< 1e-05 s⁻¹,,,
A14C G38A G66A,< 1e-05 s⁻¹,,,
A14C G40C C58A G66U,< 1e-05 s⁻¹,,< 1e-05 s⁻¹,
A14C G43U U49A C50G,< 1e-05 s⁻¹,,,< 1e-05 s⁻¹
A14C G43U U56A C68U,9.14e-05 ± 2.6e-05 s⁻¹,,,0.000133 ± 3.7e-05 s⁻¹
A14C U54C U57A G60A C70U,< 1e-05 s⁻¹,< 1e-05 s⁻¹,,< 1e-05 s⁻¹
A14G G35A U45G G66U,< 1e-05 s⁻¹,,,
A14G G40A G41U G66A,0.000149 ± 3.6e-05 s⁻¹,,0.000645 ± 0.0001 s⁻¹,0.000356 ± 9.3e-05 s⁻¹
A14G G62A U65G,< 1e-05 s⁻¹,,,< 1e-05 s⁻¹
A14G G63C,< 1e-05 s⁻¹,< 1e-05 s⁻¹,< 1e-05 s⁻¹,
A14G U45C C50A,< 1e-05 s⁻¹,,,
A14G U46A G63U,< 1e-05 s⁻¹,,,< 1e-05 s⁻¹
A14U A39G G43A,< 1e-05 s⁻¹,< 1e-05 s⁻¹,,
A14U G40U U47A A64C,< 1e-05 s⁻¹,,,
A14U U30C G43A,< 1e-05 s⁻¹,< 1e-05 s⁻¹,,< 1e-05 s⁻¹
A14U U30G G40A,0.000126 ± 3.6e-05 s⁻¹,,,0.000424 ± 0.00014 s⁻¹
A14U U46C C70U,0.000206 ± 5e-05 s⁻¹,,,
A15C A33U G63C,< 1e-05 s⁻¹,,,
A15C A36C C67U,< 1e-05 s⁻¹,< 1e-05 s⁻¹,,< 1e-05 s⁻¹
